Measured values reported in the supplement of paper PMC8728848.
The other results are listed elsewhere or left out.

Columns and labels:
Experiment in all cases: glycan array binding signal (z-score within array); higher = stronger binding
Conditions in all cases: glycan notation: IUPAC condensed, linker removed
[1] = target: Man(a1-2)Man(a1-3)[Man(a1-2)Man(a1-6)]Man(a1-6)[Man(a1-2)Man(a1-2)Man(a1-3)]Man
In short: (§1)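 The Consortium for Functional Glycomics database supplied 3228 glycan arrays, of which those lacking an available protein sequence were dropped. The binding signal, a within-array Z-score, was averaged across arrays of the same protein sequence and across linkers. Negative scores can be read as non-binding.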

[2] = target: Man(a1-2)Man(a1-3)[Man(a1-2)Man(a1-6)]Man(a1-6)[Man(a1-2)Man(a1-2)Man(a1-3)]Man(b1-4)GlcNAc(b1-4)GlcNAc
In short: as §1

[3] = target: Man(a1-2)Man(a1-3)[Man(a1-6)]Man(a1-6)[Man(a1-2)Man(a1-3)]Man(b1-4)GlcNAc(b1-4)GlcNAc
In short: as §1

[4] = target: Man(a1-2)Man(a1-6)[Man(a1-3)]Man(a1-6)[Man(a1-2)Man(a1-2)Man(a1-3)]Man
In short: as §1

[5] = target: Man(a1-2)Man(a1-6)[Man(a1-3)]Man(a1-6)[Man(a1-2)Man(a1-2)Man(a1-3)]Man(b1-4)GlcNAc(b1-4)GlcNAc
In short: as §1

Man(a1-3)[Man(a1-6)]Man = target: Man(a1-3)[Man(a1-6)]Man
In short: as §1

[6] = target: Man(a1-3)[Man(a1-6)]Man(a1-6)[Man(a1-2)Man(a1-3)]Man(b1-4)GlcNAc(b1-4)GlcNAc
In short: as §1

[7] = target: Man(a1-3)[Man(a1-6)]Man(a1-6)[Man(a1-3)]Man
In short: as §1

[8] = target: Man(a1-3)[Man(a1-6)]Man(a1-6)[Man(a1-3)]Man(b1-4)GlcNAc(b1-4)GlcNAc
In short: as §1

[9] = target: Man(a1-3)[Man(a1-6)]Man(b1-4)GlcNAc(b1-4)GlcNAc
In short: as §1

[10] = target: Man(a1-3)[Man(a1-6)]Man(b1-4)GlcNAc(b1-4)[Fuc(a1-6)]GlcNAc
In short: as §1

Man(a1-6)Man = target: Man(a1-6)Man
In short: as §1

Man(b1-4)GlcNAc = target: Man(b1-4)GlcNAc
In short: as §1

MurNAc(b1-4)GlcNAc = target: MurNAc(b1-4)GlcNAc
In short: as §1

Neu5Ac(a2-3)Gal = target: Neu5Ac(a2-3)Gal
In short: as §1

[11] = target: Neu5Ac(a2-3)Gal(b1-3)GalNAc
In short: as §1

[12] = target: Neu5Ac(a2-3)Gal(b1-3)GalNAc(b1-3)Gal(a1-4)Gal(b1-4)Glc
In short: as §1

[13] = target: Neu5Ac(a2-3)Gal(b1-3)GalNAc(b1-4)Gal(b1-4)Glc
In short: as §1

[14] = target: Neu5Ac(a2-3)Gal(b1-3)GalNAc(b1-4)[Neu5Ac(a2-3)]Gal(b1-4)Glc
In short: as §1

[15] = target: Neu5Ac(a2-3)Gal(b1-3)GalNAc(b1-4)[Neu5Ac(a2-8)Neu5Ac(a2-3)]Gal(b1-4)Glc
In short: as §1

[16] = target: Neu5Ac(a2-3)Gal(b1-3)GalNAc6S
In short: as §1

[17] = target: Neu5Ac(a2-3)Gal(b1-3)GlcNAc
In short: as §1

[18] = target: Neu5Ac(a2-3)Gal(b1-3)GlcNAc(b1-2)Man
In short: as §1

[19] = target: Neu5Ac(a2-3)Gal(b1-3)GlcNAc(b1-2)Man(a1-3)[GlcNAc(b1-4)][Neu5Ac(a2-3)Gal(b1-3)GlcNAc(b1-2)Man(a1-6)]Man(b1-4)GlcNAc(b1-4)GlcNAc
In short: as §1

[20] = target: Neu5Ac(a2-3)Gal(b1-3)GlcNAc(b1-2)Man(a1-3)[Neu5Ac(a2-3)Gal(b1-3)GlcNAc(b1-2)Man(a1-6)]Man(b1-4)GlcNAc(b1-4)GlcNAc
In short: as §1

[21] = target: Neu5Ac(a2-3)Gal(b1-3)GlcNAc(b1-2)[Neu5Ac(a2-3)Gal(b1-3)GlcNAc(b1-4)]Man(a1-6)[Neu5Ac(a2-3)Gal(b1-3)GlcNAc(b1-2)Man(a1-3)]Man(b1-4)GlcNAc(b1-4)GlcNAc
In short: as §1

[22] = target: Neu5Ac(a2-3)Gal(b1-3)GlcNAc(b1-3)Gal(b1-3)GlcNAc
In short: as §1

[23] = target: Neu5Ac(a2-3)Gal(b1-3)GlcNAc(b1-3)Gal(b1-4)GlcNAc
In short: as §1

[24] = target: Neu5Ac(a2-3)Gal(b1-3)GlcNAc(b1-3)GalNAc
In short: as §1

[25] = target: Neu5Ac(a2-3)Gal(b1-3)GlcNAc(b1-6)GalNAc
In short: as §1

[26] = target: Neu5Ac(a2-3)Gal(b1-3)GlcNAc6S
In short: as §1

[27] = target: Neu5Ac(a2-3)Gal(b1-3)[Fuc(a1-4)]GlcNAc
In short: as §1

[28] = target: Neu5Ac(a2-3)Gal(b1-3)[Fuc(a1-4)]GlcNAc(b1-3)Gal(b1-3)[Fuc(a1-4)]GlcNAc
In short: as §1

[29] = target: Neu5Ac(a2-3)Gal(b1-3)[Fuc(a1-4)]GlcNAc(b1-3)Gal(b1-4)[Fuc(a1-3)]GlcNAc
In short: as §1

[30] = target: Neu5Ac(a2-3)Gal(b1-3)[GlcNAc(b1-6)]GalNAc
In short: as §1

[31] = target: Neu5Ac(a2-3)Gal(b1-3)[Neu5Ac(a2-6)]GalNAc
In short: as §1

[32] = target: Neu5Ac(a2-3)Gal(b1-3)[Neu5Ac(a2-6)]GlcNAc(b1-3)[Fuc(a1-3)[Gal(b1-4)]GlcNAc(b1-6)]Gal(b1-4)Glc
In short: as §1

[33] = target: Neu5Ac(a2-3)Gal(b1-3)]Neu5Ac(a2-3)Gal(b1-4)]GlcNAc
In short: as §1

Neu5Ac(a2-3)Gal(b1-4)Glc = target: Neu5Ac(a2-3)Gal(b1-4)Glc
In short: as §1

[34] = target: Neu5Ac(a2-3)Gal(b1-4)GlcNAc
In short: as §1

[35] = target: Neu5Ac(a2-3)Gal(b1-4)GlcNAc(b1-2)Man
In short: as §1

[36] = target: Neu5Ac(a2-3)Gal(b1-4)GlcNAc(b1-2)Man(a1-3)[GlcNAc(b1-4)][Neu5Ac(a2-3)Gal(b1-4)GlcNAc(b1-2)Man(a1-6)]Man(b1-4)GlcNAc(b1-4)GlcNAc
In short: as §1

[37] = target: Neu5Ac(a2-3)Gal(b1-4)GlcNAc(b1-2)Man(a1-3)[Neu5Ac(a2-3)Gal(b1-4)GlcNAc(b1-2)Man(a1-6)]Man(b1-4)GlcNAc(b1-4)GlcNAc
In short: as §1

[38] = target: Neu5Ac(a2-3)Gal(b1-4)GlcNAc(b1-2)Man(a1-3)[Neu5Ac(a2-3)Gal(b1-4)GlcNAc(b1-2)Man(a1-6)]Man(b1-4)GlcNAc(b1-4)[Fuc(a1-6)]GlcNAc
In short: as §1

[39] = target: Neu5Ac(a2-3)Gal(b1-4)GlcNAc(b1-2)Man(a1-3)[Neu5Ac(a2-6)Gal(b1-4)GlcNAc(b1-2)Man(a1-6)]Man(b1-4)GlcNAc(b1-4)GlcNAc
In short: as §1

B1: PfulAvr4 2 (Pseudocercospora fuligena) (protein)
chain: HHHHHHDYKDDDDKAKPIKPFACPPKDFTTTKCQGPVDCLYANPLSCLGYIQCVCDDDACSTATPYAKSCPTGLAWVEKLKRCDGIKKSACPKKMYEGS
With B1 as the binder, how does the “glycan array binding signal (z-score)” value [1] read?
The value was -0.359.

What about the “glycan array binding signal (z-score)” value [2] of the same binder?
Its value is -0.214.

And the “glycan array binding signal (z-score)” value [3]?
The value was -0.32.

What about the “glycan array binding signal (z-score)” value [4] of the same binder?
The value was -0.389.

What about the “glycan array binding signal (z-score)” value [5] of the same binder?
The value was -0.282.

What about the “glycan array binding signal (z-score)” value (Man(a1-3)[Man(a1-6)]Man) of the same binder?
The value was -0.108.

What about the “glycan array binding signal (z-score)” value [6] of the same binder?
Its value is -0.104.

And the “glycan array binding signal (z-score)” value [7]?
Its value is 0.198.

What about the “glycan array binding signal (z-score)” value [8] of the same binder?
Its value is -0.196.

What about the “glycan array binding signal (z-score)” value [9] of the same binder?
Its value is -0.311.

And the “glycan array binding signal (z-score)” value [10]?
Its value is -0.353.

What about the “glycan array binding signal (z-score)” value (Man(a1-6)Man) of the same binder?
Its value is 0.055.

And the “glycan array binding signal (z-score)” value (Man(b1-4)GlcNAc)?
Its value is 0.119.

And the “glycan array binding signal (z-score)” value (MurNAc(b1-4)GlcNAc)?
The value was 0.075.

What about the “glycan array binding signal (z-score)” value (Neu5Ac(a2-3)Gal) of the same binder?
The value was -0.39.

What about the “glycan array binding signal (z-score)” value [11] of the same binder?
The value was -0.292.

What about the “glycan array binding signal (z-score)” value [12] of the same binder?
The value was -0.326.

What about the “glycan array binding signal (z-score)” value [13] of the same binder?
Its value is -0.416.

And the “glycan array binding signal (z-score)” value [14]?
Its value is -0.254.

And the “glycan array binding signal (z-score)” value [15]?
Its value is -0.189.

What about the “glycan array binding signal (z-score)” value [16] of the same binder?
The value was -0.311.

What about the “glycan array binding signal (z-score)” value [17] of the same binder?
Its value is -0.248.

What about the “glycan array binding signal (z-score)” value [18] of the same binder?
The value was -0.38.

And the “glycan array binding signal (z-score)” value [19]?
The value was -0.239.

And the “glycan array binding signal (z-score)” value [20]?
Its value is 7.16.

What about the “glycan array binding signal (z-score)” value [21] of the same binder?
The value was 0.392.

And the “glycan array binding signal (z-score)” value [22]?
The value was -0.261.

And the “glycan array binding signal (z-score)” value [23]?
Its value is -0.372.

What about the “glycan array binding signal (z-score)” value [24] of the same binder?
Its value is -0.01.

And the “glycan array binding signal (z-score)” value [25]?
Its value is 0.055.

And the “glycan array binding signal (z-score)” value [26]?
The value was 0.342.

What about the “glycan array binding signal (z-score)” value [27] of the same binder?
The value was -0.258.

What about the “glycan array binding signal (z-score)” value [28] of the same binder?
The value was -0.212.

And the “glycan array binding signal (z-score)” value [29]?
The value was -0.285.

And the “glycan array binding signal (z-score)” value [30]?
The value was -0.034.

And the “glycan array binding signal (z-score)” value [31]?
Its value is 0.084.

What about the “glycan array binding signal (z-score)” value [32] of the same binder?
Its value is -0.257.

And the “glycan array binding signal (z-score)” value [33]?
Its value is -0.167.

What about the “glycan array binding signal (z-score)” value (Neu5Ac(a2-3)Gal(b1-4)Glc) of the same binder?
Its value is -0.243.

What about the “glycan array binding signal (z-score)” value [34] of the same binder?
The value was -0.07.

And the “glycan array binding signal (z-score)” value [35]?
Its value is 5.08.

And the “glycan array binding signal (z-score)” value [36]?
The value was -0.297.

And the “glycan array binding signal (z-score)” value [37]?
Its value is -0.322.

What about the “glycan array binding signal (z-score)” value [38] of the same binder?
Its value is -0.338.

What about the “glycan array binding signal (z-score)” value [39] of the same binder?
The value was 1.66.
